Experimental data published in PubChem BioAssay AID1508623 (National Center for Advancing Translational Sciences (NCATS), 2021).
Among all 48,000 compounds or so, about 450 (0.94%) were called active. Inconclusive results (about 19%) are left out. The call rests on the fitted dose curve; in most records, active means well fitted inhibition curve with a large enough effect; inconclusive means small, poorly fitted or top-dose-only effect; inactive means no such curve, though single readings can be large or run the other way. This is one part of the list.

experiment: Primary qHTS for Identification of Small Molecule Inhibitors of Huntingtin Promoter Activity; settings: HEK293 HTT promoter firefly luciferase reporter (activity 0% = vehicle and -100% = no light), 24 h; series mostly up to 57.5 µM; activity change, negative = inhibition: at the top concentration; further: nearly all actives have a fitted effect of over 50% in size
In short: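 Quantitative HTS used concentration series of up to 57.5 uM final on HEK293 luciferase reporter cells, 24 h at 37 degrees C. Readout was Dual-Glo firefly luminescence.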

SMILES | activity change, negative = inhibition
CCOC(=O)c1c(S(=O)(=O)N2CCCC(C(=O)Nc3cc(C)ccc3OC)C2)c(C)n(C)c1C (stereo unspecified) | inactive: -14.9%
CCCCNC(=O)CCn1c(=O)c2ccccc2n(Cc2cc(C)ccc2C)c1=O | inactive: -15.7%
COc1cccc(C2=NN(C(C)=O)C(c3cn(-c4ccccc4)nc3-c3cccs3)C2)c1 (stereo unspecified) | inactive: -18.1%
CC1CCN(S(=O)(=O)c2ccc3c(c2)N(CC(=O)N2CCN(c4ccc(Cl)cc4)CC2)C(=O)CO3)CC1 | inactive: -24.4%
CC(C[N+](C)(C)C)OC(N)=O (stereo unspecified) | inactive
Cc1ccc(C)c(N2CCN(C(=O)c3cc(S(=O)(=O)N4CCCCC4)cn3C)CC2)c1 | inactive: -30.3%
COc1ccc2[nH]cc(CCNC(=O)Nc3ccc(F)cc3)c2c1 | inactive: -15.2%
CCCC(=O)Nc1nnc(SCc2cc(=O)c3cc(C)ccc3[nH]2)s1 | inactive: -22.4%
O=C(c1ccc(CSc2nc3ccncc3n2Cc2ccccc2F)cc1)N1CCCCCC1 | inactive: -29.7%
O=C(Cn1ncc2c3ccccc3n(Cc3ccc(Cl)cc3)c2c1=O)NCCCc1ccccc1 | inactive: 0.388%
CC(C)c1ccc(Nc2cc(C(=O)NCCc3ccccc3)c3ccccc3n2)cc1 | inactive: -7.47%
CCc1ccccc1N1CC(c2nc3ccccc3n2CC(C)C)CC1=O (stereo unspecified) | inactive: -17.9%
Cc1ccc(C)c(S(=O)(=O)c2nnn3c2nc(N2CCCC2)c2sccc23)c1 | inactive: -19.6%
CCCCN(CC)CCCn1cnc2c([nH]c3ccc(Cl)cc32)c1=O | inactive: 1.35%
CCC(=O)Nc1ccccc1-c1nc2ccccc2n(C(CC)C(=O)Nc2cccc(C(C)=O)c2)c1=O (stereo unspecified) | inactive: -3.82%
CC(C)(C)C1CCc2nc(NC(=O)COc3ccc(F)cc3)sc2C1 (stereo unspecified) | inactive: -26.3%
CC(=O)Nc1ccc(-n2cc3c(c2-c2ccc(C)cc2)c(=O)n(C)c(=O)n3C)cc1 | inactive: -0.593%
Cc1oc(-c2ccc(C(=O)Nc3ccc(F)cc3F)cc2)nc1COc1ccccc1 | inactive: -15.9%
Cn1c(SCC(=O)Nc2ccc(F)cc2)nc2c([nH]c3ccccc32)c1=O | inactive: -15.4%
CN(C)C(=O)c1ccc2c(c1)N(CC(=O)NCc1ccc(F)cc1)C(=O)C1CCCCN21 (stereo unspecified) | inactive: -3.83%
COc1cccc(-c2cc(C(=O)NCc3ccccc3)[nH]n2)c1 | inactive: 43.6%
Cc1ccc(NC(=O)C(Cc2ccccc2)NS(=O)(=O)c2ccc3c(c2)c(=O)n(C)c(=O)n3C)cc1 (stereo unspecified) | inactive: -18%
CCN(C(=O)c1cc(S(=O)(=O)N2CCOCC2)cn1C)c1ccc(OC)cc1 | inactive: 11.7%
Cc1ccc(CN2C(=O)c3ccccc3S(=O)(=O)c3ccc(C(=O)OCC4CCCO4)cc32)cc1 (stereo unspecified) | inactive: -0.412%
CCOc1nc(NC(=O)NS(=O)(=O)Oc2ccc(Cl)cc2)nc(-c2ccccc2)n1 | inactive: 41.6%
Cc1cccn2c(=O)c3cc(C(=O)NCCc4ccc(S(N)(=O)=O)cc4)n(C)c3nc12 | inactive: -28.6%
